Experimental data taken from patent US9945860B2, “Nicotinamide adenine dinucleotide indicators, methods of preparation and application thereof” (East China University of Science and Technology, priority 2011, dated 2018).

Assay: Spectral characteristics of fluorescent sensors (excitation and emission spectra)
Type: physicochemical
Conditions: 10 μM sensor in 100 mM KPi, pH7.4
Description: The fluorescent sensors that prepared above were dissolved in assay buffer (100 mM KPi, pH7.4) to formulate fluorescent sensor solutions to a final concentration of 10 μM. Then their absorption spectra were measured using a Multi-functional Fluorescence Microplate Reader (Synergy2, Biotek) (FIG. 3A).
Their excitation and emission spectra were determined using a fluorescence spectrophotometer (Cary Eclipse Fluorescence spectrophotometer, Varian) (FIG. 3B).

B1: F-rex1: NADH fluorescent sensor from pRSETb-ydiH-cpYFP-ydiH(D2), Bacillus subtilis YdiH fused with cpYFP, SEQ ID NO: 4 (protein)
chain: MRGSHHHHHHGMASMTGGQQMGRDLYDDDDKDPMNKDQSKIPQATAKRLPLYYRFLKNLHASGKQRVSSAELSDAVKVDSATIRRDFSYFGALGKKGYGYNVDYLLSFFRKTLDQDEMTDVILIGVGNLGTAFLHYNFTKNNNTKISMAFDINESKIGTEVGGVPVYNLDDLEQHVKDESVAILTVPAVAAQSITDRLVALGIKGILNFTPARLNVPEHIRIHHIDLAVELQSLVYFLKHYSVLEEIETSYNSDNVYIMADKQKNGIKANFKIRHNVEDGSVQLADHYQQNTPIGDGPVLLPDNHYLSFQSVLSKDPNEKRDHMVLLEFVTAAGITLGMDELYNVDGGSGGTGSKGEELFTGVVPILVELDGDVNGHKFSVSGEGEGDATYGKLTLKLICTTGKLPVPWPTLVTTLGYGLKCFARYPDHMKQHDFFKSAMPEGYVQERTIFFKDDGNYKTRAEVKFEGDTLVNRIELKGIGFKEDGNILGHKLEYNGTMTDVILIGVGNLGTAFLHYNFTKNNNTKISMAFDINESKIGTEVGGVPVYNLDDLEQHVKDESVAILTVPAVAAQSITDRLVALGIKGILNFTPARLNVPEHIRIHHIDLAVELQSLVYFLKHYSVLEEIE
modifications: synthetic fluorescent sensor
Question: With B1 as the molecule, how does the emission peak read?
Answer: 521 nm

Question: And the excitation peaks?
Answer: 400 nm and 490 nm

Question: And the “intensity of the latter excitation peak relative to the former” value?
Answer: five times

Several values for one entry are separate records, joined by “and”; a condition that tells them apart may be missing. Equal values may be shown once.
